Results published in publication PMC10244402.
Results are given in words; binding and its absence hold for the method and conditions named. In cells and extracts the contact can be indirect. Some entries that bind do so weakly or less than the wild type.

Amino acid sequences for entries named in this document (tags omitted). A change or cut given only in a name is not applied to a line headed by its entry. Chains listed by the source or under a name are the forms on record and can include a tag or linker.
FLAG-tagged Sim2s-pATMΔ in HC11 cells (Q14190, form named): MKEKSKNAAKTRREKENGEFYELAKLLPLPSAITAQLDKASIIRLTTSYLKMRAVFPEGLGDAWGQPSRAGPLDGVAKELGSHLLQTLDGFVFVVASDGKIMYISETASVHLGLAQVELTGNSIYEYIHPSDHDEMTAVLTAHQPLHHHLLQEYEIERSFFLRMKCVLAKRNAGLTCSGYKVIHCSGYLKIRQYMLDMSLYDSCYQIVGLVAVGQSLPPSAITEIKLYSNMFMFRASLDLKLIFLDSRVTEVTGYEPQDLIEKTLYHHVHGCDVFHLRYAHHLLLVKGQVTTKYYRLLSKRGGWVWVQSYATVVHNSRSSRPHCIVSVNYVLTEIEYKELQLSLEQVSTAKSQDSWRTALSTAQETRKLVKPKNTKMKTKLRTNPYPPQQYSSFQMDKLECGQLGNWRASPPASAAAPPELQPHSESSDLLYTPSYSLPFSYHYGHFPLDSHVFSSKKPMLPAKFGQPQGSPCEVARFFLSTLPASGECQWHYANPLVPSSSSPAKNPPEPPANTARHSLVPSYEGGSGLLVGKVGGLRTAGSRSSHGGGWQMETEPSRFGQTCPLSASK
FLAG-tagged SIM2s in SUM159-Sim2s cells (Q14190, form named): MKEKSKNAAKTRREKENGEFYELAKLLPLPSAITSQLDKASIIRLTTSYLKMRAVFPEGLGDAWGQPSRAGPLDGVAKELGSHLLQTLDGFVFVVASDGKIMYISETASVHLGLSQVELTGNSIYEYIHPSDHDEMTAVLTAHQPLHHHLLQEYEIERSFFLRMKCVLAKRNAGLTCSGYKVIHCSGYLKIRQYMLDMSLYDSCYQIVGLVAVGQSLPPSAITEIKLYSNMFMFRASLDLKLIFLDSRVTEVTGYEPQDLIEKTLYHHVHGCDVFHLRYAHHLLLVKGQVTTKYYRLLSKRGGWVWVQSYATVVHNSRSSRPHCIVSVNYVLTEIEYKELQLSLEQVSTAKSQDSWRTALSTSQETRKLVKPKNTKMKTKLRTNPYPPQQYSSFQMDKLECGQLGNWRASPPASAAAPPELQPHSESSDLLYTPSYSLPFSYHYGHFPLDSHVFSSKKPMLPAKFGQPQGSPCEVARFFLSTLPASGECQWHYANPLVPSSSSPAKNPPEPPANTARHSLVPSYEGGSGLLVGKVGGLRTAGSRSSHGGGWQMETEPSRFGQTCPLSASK
UniProt O60260: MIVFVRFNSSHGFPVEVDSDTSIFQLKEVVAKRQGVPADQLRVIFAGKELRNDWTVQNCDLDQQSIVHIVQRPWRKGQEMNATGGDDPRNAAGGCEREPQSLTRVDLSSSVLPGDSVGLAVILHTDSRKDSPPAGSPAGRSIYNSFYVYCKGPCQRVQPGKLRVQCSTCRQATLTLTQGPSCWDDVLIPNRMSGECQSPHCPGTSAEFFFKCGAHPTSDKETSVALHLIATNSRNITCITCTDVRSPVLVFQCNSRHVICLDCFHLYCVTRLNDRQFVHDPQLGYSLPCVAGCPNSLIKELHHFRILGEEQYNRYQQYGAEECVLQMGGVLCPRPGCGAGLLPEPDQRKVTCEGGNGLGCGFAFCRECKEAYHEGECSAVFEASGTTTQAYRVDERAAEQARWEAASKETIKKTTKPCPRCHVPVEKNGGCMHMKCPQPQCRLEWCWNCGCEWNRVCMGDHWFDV
UniProt Q62388: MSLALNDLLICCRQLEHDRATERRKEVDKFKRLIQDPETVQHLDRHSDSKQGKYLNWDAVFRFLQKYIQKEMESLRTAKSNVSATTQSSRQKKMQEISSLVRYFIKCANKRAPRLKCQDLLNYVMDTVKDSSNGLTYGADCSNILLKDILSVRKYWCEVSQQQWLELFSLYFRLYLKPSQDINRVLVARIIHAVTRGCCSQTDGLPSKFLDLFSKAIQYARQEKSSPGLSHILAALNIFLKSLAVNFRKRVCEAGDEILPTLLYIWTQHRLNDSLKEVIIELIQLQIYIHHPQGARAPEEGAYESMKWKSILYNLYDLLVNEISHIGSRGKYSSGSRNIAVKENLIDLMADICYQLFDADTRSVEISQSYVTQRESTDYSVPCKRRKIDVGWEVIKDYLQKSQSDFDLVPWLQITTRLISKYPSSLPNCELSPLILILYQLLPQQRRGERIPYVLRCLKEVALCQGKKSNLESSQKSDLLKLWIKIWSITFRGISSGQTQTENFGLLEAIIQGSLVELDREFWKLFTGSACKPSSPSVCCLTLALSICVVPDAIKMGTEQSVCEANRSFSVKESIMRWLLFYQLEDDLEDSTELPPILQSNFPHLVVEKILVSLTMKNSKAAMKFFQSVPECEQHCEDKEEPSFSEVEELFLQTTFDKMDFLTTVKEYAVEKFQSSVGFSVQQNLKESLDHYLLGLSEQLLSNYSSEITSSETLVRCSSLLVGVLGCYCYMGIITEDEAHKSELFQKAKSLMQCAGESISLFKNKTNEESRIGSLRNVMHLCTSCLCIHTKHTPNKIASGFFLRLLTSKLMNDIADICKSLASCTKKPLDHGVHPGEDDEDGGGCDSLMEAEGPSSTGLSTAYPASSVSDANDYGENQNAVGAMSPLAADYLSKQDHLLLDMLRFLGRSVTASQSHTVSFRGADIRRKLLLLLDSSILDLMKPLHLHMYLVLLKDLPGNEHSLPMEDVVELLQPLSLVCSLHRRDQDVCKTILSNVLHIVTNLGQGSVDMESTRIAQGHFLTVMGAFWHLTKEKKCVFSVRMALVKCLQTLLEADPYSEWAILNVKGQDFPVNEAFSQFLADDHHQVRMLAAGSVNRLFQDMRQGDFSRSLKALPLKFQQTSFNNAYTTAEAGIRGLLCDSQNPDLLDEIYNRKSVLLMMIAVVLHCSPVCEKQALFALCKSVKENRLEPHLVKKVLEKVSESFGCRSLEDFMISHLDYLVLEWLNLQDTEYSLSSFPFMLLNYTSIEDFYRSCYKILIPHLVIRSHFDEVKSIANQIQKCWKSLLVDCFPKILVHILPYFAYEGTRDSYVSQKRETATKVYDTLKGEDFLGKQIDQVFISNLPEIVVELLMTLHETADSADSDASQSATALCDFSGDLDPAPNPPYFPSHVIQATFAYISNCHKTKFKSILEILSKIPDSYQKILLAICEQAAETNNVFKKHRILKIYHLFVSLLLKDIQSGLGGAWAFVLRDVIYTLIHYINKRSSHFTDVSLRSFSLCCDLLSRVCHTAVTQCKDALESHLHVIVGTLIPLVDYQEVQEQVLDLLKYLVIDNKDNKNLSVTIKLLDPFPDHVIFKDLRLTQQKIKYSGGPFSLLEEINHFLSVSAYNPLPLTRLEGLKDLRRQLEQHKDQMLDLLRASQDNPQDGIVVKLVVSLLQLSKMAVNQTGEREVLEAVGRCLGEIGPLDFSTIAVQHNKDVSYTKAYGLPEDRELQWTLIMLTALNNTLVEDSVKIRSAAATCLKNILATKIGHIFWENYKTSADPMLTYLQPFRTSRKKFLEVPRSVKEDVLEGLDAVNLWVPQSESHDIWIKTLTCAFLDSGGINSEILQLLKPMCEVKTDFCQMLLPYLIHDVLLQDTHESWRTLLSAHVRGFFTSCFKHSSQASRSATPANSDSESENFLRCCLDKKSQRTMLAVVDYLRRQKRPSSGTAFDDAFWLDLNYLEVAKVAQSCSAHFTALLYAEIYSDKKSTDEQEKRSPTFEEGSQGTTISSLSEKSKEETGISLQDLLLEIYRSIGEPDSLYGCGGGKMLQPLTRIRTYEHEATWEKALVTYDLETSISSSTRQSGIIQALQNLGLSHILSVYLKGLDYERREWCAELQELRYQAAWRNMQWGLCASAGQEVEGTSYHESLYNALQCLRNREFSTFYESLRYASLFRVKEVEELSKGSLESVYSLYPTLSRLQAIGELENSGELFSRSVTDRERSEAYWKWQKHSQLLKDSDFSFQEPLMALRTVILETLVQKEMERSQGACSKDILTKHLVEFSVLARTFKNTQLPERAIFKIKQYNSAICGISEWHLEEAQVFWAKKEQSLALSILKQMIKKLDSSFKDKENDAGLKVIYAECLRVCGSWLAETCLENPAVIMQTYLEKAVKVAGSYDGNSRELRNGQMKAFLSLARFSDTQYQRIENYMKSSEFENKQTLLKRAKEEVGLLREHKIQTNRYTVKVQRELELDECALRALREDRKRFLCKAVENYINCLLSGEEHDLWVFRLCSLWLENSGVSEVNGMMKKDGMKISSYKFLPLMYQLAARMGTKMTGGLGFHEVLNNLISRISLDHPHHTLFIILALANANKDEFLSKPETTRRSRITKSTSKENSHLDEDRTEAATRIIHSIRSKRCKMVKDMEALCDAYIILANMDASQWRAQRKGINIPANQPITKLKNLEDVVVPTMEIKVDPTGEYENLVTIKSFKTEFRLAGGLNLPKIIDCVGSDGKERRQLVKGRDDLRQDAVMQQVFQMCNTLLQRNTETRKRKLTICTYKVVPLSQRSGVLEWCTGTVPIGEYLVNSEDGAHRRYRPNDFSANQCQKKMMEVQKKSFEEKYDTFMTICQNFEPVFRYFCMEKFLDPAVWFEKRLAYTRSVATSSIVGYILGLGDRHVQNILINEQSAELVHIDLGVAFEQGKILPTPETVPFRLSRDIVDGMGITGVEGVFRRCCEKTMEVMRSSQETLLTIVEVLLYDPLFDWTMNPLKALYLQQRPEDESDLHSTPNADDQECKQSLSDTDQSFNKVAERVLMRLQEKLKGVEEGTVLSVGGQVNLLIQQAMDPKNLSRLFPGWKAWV

What was measured:
[1] = molecular target: FLAG-tagged Sim2s-pATMΔ in SUM159 cells (UniProt Q14190); experiment: co-IP; co-immunoprecipitation of HA-PRKN and FLAG in control, Sim2s or Sim2s-pATMΔ SUM159 cells
[2] = molecular target: FLAG-tagged SIM2s in SUM159-Sim2s cells (UniProt Q14190); experiment: as above
[3] = molecular target: FLAG-tagged SIM2s (single-minded 2 s) in HC11-Sim2s cells (UniProt Q14190); experiment: co-IP; FLAG-conjugated magnetic beads, RIPA lysates of HC11 cells at 24 h of differentiation incubated overnight, five washes in TBS, western blot
[4] = molecular target: FLAG-tagged Sim2s-pATMΔ in HC11 cells (UniProt Q14190); experiment: as above
[5] = molecular target: FLAG-tagged SIM2s in SUM159-Sim2s cells (UniProt Q14190); experiment: proximity ligation; Duolink In Situ PLA in fixed, permeabilised SUM159 pLPCX SIM2s-FLAG cells; mouse and rabbit primary antibodies; puncta per cell

HA-PRKN (parkin RBR E3 ubiquitin protein ligase) (from UniProt O60260 1-465) (enzyme)
binding [1]: no binding
binding [2]: binds

ATM (ataxia telangiectasia mutated) protein kinase (from UniProt Q62388 1-3066) (enzyme)
binding [3]: binds
binding [4]: no binding

PRKN (parkin RBR E3 ubiquitin protein ligase) in SUM159 cells, proximity ligation assay (from UniProt O60260 1-465) (enzyme)
binding [5]: binds
